{
  "source": "the supplement of paper PMC8728848",
  "test_in_all_cases": "glycan array binding signal (z-score within array); higher = stronger binding",
  "settings_in_all_cases": "glycan notation: IUPAC condensed, linker removed",
  "key": {"[1]": {"target": "Neu5Ac(a2-6)Gal(b1-4)GlcNAc(b1-6)[Gal(b1-3)]GalNAc", "procedure,_shortened": "(§1)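 Columns mapping to the same glycan were averaged after glycan names were converted to IUPAC-condensed notation. The data come from 3228 arrays in the Consortium for Functional Glycomics database, limited to those with an available protein sequence. Binding is reported as a within-array Z-score averaged across arrays of one protein sequence and across linkers.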"}, "[2]": {"target": "Neu5Ac(a2-6)Gal(b1-4)GlcNAc6S", "procedure,_shortened": "as §1"}, "Neu5Ac(a2-6)GalNAc": {"target": "Neu5Ac(a2-6)GalNAc", "procedure,_shortened": "as §1"}, "[3]": {"target": "Neu5Ac(a2-6)GalNAc(b1-4)GlcNAc", "procedure,_shortened": "as §1"}, "[4]": {"target": "Neu5Ac(a2-6)GalNAc(b1-4)GlcNAc6S", "procedure,_shortened": "as §1"}, "[5]": {"target": "Neu5Ac(a2-6)GlcNAc(b1-4)GlcNAc", "procedure,_shortened": "as §1"}, "[6]": {"target": "Neu5Ac(a2-6)GlcNAc(b1-4)GlcNAc(b1-4)GlcNAc", "procedure,_shortened": "as §1"}, "Neu5Ac(a2-8)Neu5Ac": {"target": "Neu5Ac(a2-8)Neu5Ac", "procedure,_shortened": "as §1"}, "[7]": {"target": "Neu5Ac(a2-8)Neu5Ac(a2-3)Gal(b1-3)GalNAc(b1-4)[Neu5Ac(a2-3)]Gal(b1-4)Glc", "procedure,_shortened": "as §1"}, "[8]": {"target": "Neu5Ac(a2-8)Neu5Ac(a2-3)Gal(b1-3)GalNAc(b1-4)[Neu5Ac(a2-8)Neu5Ac(a2-3)]Gal(b1-4)Glc", "procedure,_shortened": "as §1"}, "[9]": {"target": "Neu5Ac(a2-8)Neu5Ac(a2-3)Gal(b1-4)Glc", "procedure,_shortened": "as §1"}, "[10]": {"target": "Neu5Ac(a2-8)Neu5Ac(a2-3)Gal(b1-4)GlcNAc", "procedure,_shortened": "as §1"}, "[11]": {"target": "Neu5Ac(a2-8)Neu5Ac(a2-3)[Gal(b1-3)GalNAc(b1-4)]Gal(b1-4)Glc", "procedure,_shortened": "as §1"}, "[12]": {"target": "Neu5Ac(a2-8)Neu5Ac(a2-3)[GalNAc(b1-4)]Gal(b1-4)Glc", "procedure,_shortened": "as §1"}, "[13]": {"target": "Neu5Ac(a2-8)Neu5Ac(a2-8)Neu5Ac", "procedure,_shortened": "as §1"}, "[14]": {"target": "Neu5Ac(a2-8)Neu5Ac(a2-8)Neu5Ac(a2-3)Gal(b1-4)Glc", "procedure,_shortened": "as §1"}, "[15]": {"target": "Neu5Ac(a2-8)Neu5Ac(a2-8)Neu5Ac(a2-3)[Gal(b1-3)GalNAc(b1-4)]Gal(b1-4)Glc", "procedure,_shortened": "as §1"}, "[16]": {"target": "Neu5Ac(a2-8)Neu5Ac(a2-8)Neu5Ac(a2-3)[GalNAc(b1-4)]Gal(b1-4)Glc", "procedure,_shortened": "as §1"}, "[17]": {"target": "Neu5Ac(a2-8)Neu5Ac(a2-8)Neu5Ac(a2-8)Neu5Ac(a2-3)[GalNAc(b1-4)]Gal(b1-4)Glc", "procedure,_shortened": "as §1"}, "[18]": {"target": "Neu5Ac(a2-8)Neu5Gc(a2-3)Gal(b1-4)GlcNAc", "procedure,_shortened": "as §1"}, "[19]": {"target": "Neu5Ac(b2-6)Gal(b1-4)GlcNAc", "procedure,_shortened": "as §1"}, "Neu5Ac(b2-6)GalNAc": {"target": "Neu5Ac(b2-6)GalNAc", "procedure,_shortened": "as §1"}, "[20]": {"target": "Neu5Ac9Ac(a2-3)Gal(b1-3)GlcNAc", "procedure,_shortened": "as §1"}, "[21]": {"target": "Neu5Ac9Ac(a2-3)Gal(b1-4)GlcNAc", "procedure,_shortened": "as §1"}, "[22]": {"target": "Neu5Ac9Ac(a2-6)Gal(b1-4)GlcNAc", "procedure,_shortened": "as §1"}, "[23]": {"target": "Neu5Gc(a2-3)Gal(b1-3)GlcNAc", "procedure,_shortened": "as §1"}, "[24]": {"target": "Neu5Gc(a2-3)Gal(b1-3)[Fuc(a1-4)]GlcNAc", "procedure,_shortened": "as §1"}, "Neu5Gc(a2-3)Gal(b1-4)Glc": {"target": "Neu5Gc(a2-3)Gal(b1-4)Glc", "procedure,_shortened": "as §1"}, "[25]": {"target": "Neu5Gc(a2-3)Gal(b1-4)GlcNAc", "procedure,_shortened": "as §1"}, "[26]": {"target": "Neu5Gc(a2-3)Gal(b1-4)GlcNAc(b1-3)Gal(b1-4)GlcNAc(b1-2)Man(a1-3)[Neu5Gc(a2-3)Gal(b1-4)GlcNAc(b1-3)Gal(b1-4)GlcNAc(b1-2)Man(a1-6)]Man(b1-4)GlcNAc(b1-4)GlcNAc", "procedure,_shortened": "as §1"}, "[27]": {"target": "Neu5Gc(a2-3)Gal(b1-4)[Fuc(a1-3)]GlcNAc", "procedure,_shortened": "as §1"}, "[28]": {"target": "Neu5Gc(a2-6)Gal(b1-4)GlcNAc", "procedure,_shortened": "as §1"}, "Neu5Gc(a2-6)GalNAc": {"target": "Neu5Gc(a2-6)GalNAc", "procedure,_shortened": "as §1"}, "[29]": {"target": "Neu5Gc(a2-8)Neu5Ac(a2-3)Gal(b1-4)GlcNAc", "procedure,_shortened": "as §1"}, "[30]": {"target": "Neu5Gc(a2-8)Neu5Gc(a2-3)Gal(b1-4)GlcNAc", "procedure,_shortened": "as §1"}, "[31]": {"target": "Neu5Gc(a2-8)Neu5Gc(a2-3)Gal(b1-4)GlcNAc(b1-3)Gal(b1-4)GlcNAc", "procedure,_shortened": "as §1"}, "[32]": {"target": "Neu5Gc(a2-8)Neu5Gc(a2-6)Gal(b1-4)GlcNAc", "procedure,_shortened": "as §1"}, "[33]": {"target": "Neu5Gc(b2-6)Gal(b1-4)GlcNAc", "procedure,_shortened": "as §1"}},
  "note": "The other results are listed elsewhere or left out.",
  "data": [
    {"binder": "Pwp5 ND (Candida glabrata) (protein) MGSSHHHHHHSSGLVPRGSHMASANPVPLTNVCYFPEEYPRQAGFRAITAGLASTILQGSVDELLNYSGLSSLTTQQTTTTTPNFQLPTLPLPTNVYGLTVVPLYLLVQLQGYFVPPVSGQYTFSLENTNDAAIIFFGNPSAFPCGDLSAWPQASADDITVTDGTFPSRTLFLKAGVAYPMRISYYNSLGSGNLAVSFTDPGGTKRTNWNGYIWRYNSCSTCTYT", "values": [
      {"measurement": "glycan array binding signal (z-score)", "setting": "[1]", "result": 1.08},
      {"measurement": "glycan array binding signal (z-score)", "setting": "[2]", "result": -0.333},
      {"measurement": "glycan array binding signal (z-score)", "setting": "Neu5Ac(a2-6)GalNAc", "result": -0.579},
      {"measurement": "glycan array binding signal (z-score)", "setting": "[3]", "result": -0.67},
      {"measurement": "glycan array binding signal (z-score)", "setting": "[4]", "result": 0.083},
      {"measurement": "glycan array binding signal (z-score)", "setting": "[5]", "result": 0.217},
      {"measurement": "glycan array binding signal (z-score)", "setting": "[6]", "result": -0.189},
      {"measurement": "glycan array binding signal (z-score)", "setting": "Neu5Ac(a2-8)Neu5Ac", "result": 0.246},
      {"measurement": "glycan array binding signal (z-score)", "setting": "[7]", "result": 1.99},
      {"measurement": "glycan array binding signal (z-score)", "setting": "[8]", "result": -0.167},
      {"measurement": "glycan array binding signal (z-score)", "setting": "[9]", "result": -0.47},
      {"measurement": "glycan array binding signal (z-score)", "setting": "[10]", "result": -0.678},
      {"measurement": "glycan array binding signal (z-score)", "setting": "[11]", "result": -0.561},
      {"measurement": "glycan array binding signal (z-score)", "setting": "[12]", "result": 0.315},
      {"measurement": "glycan array binding signal (z-score)", "setting": "[13]", "result": 0.261},
      {"measurement": "glycan array binding signal (z-score)", "setting": "[14]", "result": -0.538},
      {"measurement": "glycan array binding signal (z-score)", "setting": "[15]", "result": 1.11},
      {"measurement": "glycan array binding signal (z-score)", "setting": "[16]", "result": -0.325},
      {"measurement": "glycan array binding signal (z-score)", "setting": "[17]", "result": -0.314},
      {"measurement": "glycan array binding signal (z-score)", "setting": "[18]", "result": -0.468},
      {"measurement": "glycan array binding signal (z-score)", "setting": "[19]", "result": -0.054},
      {"measurement": "glycan array binding signal (z-score)", "setting": "Neu5Ac(b2-6)GalNAc", "result": -0.478},
      {"measurement": "glycan array binding signal (z-score)", "setting": "[20]", "result": 1.23},
      {"measurement": "glycan array binding signal (z-score)", "setting": "[21]", "result": -0.582},
      {"measurement": "glycan array binding signal (z-score)", "setting": "[22]", "result": -0.451},
      {"measurement": "glycan array binding signal (z-score)", "setting": "[23]", "result": -0.163},
      {"measurement": "glycan array binding signal (z-score)", "setting": "[24]", "result": -0.368},
      {"measurement": "glycan array binding signal (z-score)", "setting": "Neu5Gc(a2-3)Gal(b1-4)Glc", "result": -0.348},
      {"measurement": "glycan array binding signal (z-score)", "setting": "[25]", "result": 0.098},
      {"measurement": "glycan array binding signal (z-score)", "setting": "[26]", "result": -0.542},
      {"measurement": "glycan array binding signal (z-score)", "setting": "[27]", "result": -0.423},
      {"measurement": "glycan array binding signal (z-score)", "setting": "[28]", "result": -0.248},
      {"measurement": "glycan array binding signal (z-score)", "setting": "Neu5Gc(a2-6)GalNAc", "result": 0.028},
      {"measurement": "glycan array binding signal (z-score)", "setting": "[29]", "result": -0.52},
      {"measurement": "glycan array binding signal (z-score)", "setting": "[30]", "result": -0.127},
      {"measurement": "glycan array binding signal (z-score)", "setting": "[31]", "result": -0.428},
      {"measurement": "glycan array binding signal (z-score)", "setting": "[32]", "result": -0.294},
      {"measurement": "glycan array binding signal (z-score)", "setting": "[33]", "result": -0.439}
    ]}
  ]
}
